Assay results taken from PubChem BioAssay AID493208 (National Center for Advancing Translational Sciences (NCATS), 2011).
About 340 (0.77%) of roughly 44,000 compounds were called active. Not shown: some 5% with an inconclusive outcome. The call rests on the fitted dose curve; in most records, active means well fitted inhibition curve with a large enough effect; inconclusive means small, poorly fitted or top-dose-only effect; inactive means flat fitted curve, though single readings scatter. The list shows a part of the results.

Assay: Acumen qHTS Assay for Inhibitors of the mTORC1 Signaling Pathway in MEF (Tsc2-/-, p53-/-) Cells: Sytravon;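 further: plate controls were DMSO for no effect and rapamycin for full effect; nearly all actives have a fitted effect of over 50% in size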
Conditions: phospho-rpS6 immunofluorescence/PI, 24 h; series mostly up to 38.3 µM; activity change, negative = inhibition: at the top concentration
In short: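 Compounds act on Tsc2-/-, p53-/- fibroblasts carrying an empty vector for 24 h before fixation and dual staining for phospho-S6 and DNA (propidium iodide). Values are percentages of cells above a rapamycin-defined pS6/PI threshold.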

Activity change, negative = inhibition, inactive:
Cc1ccc(CNC(=O)c2ccc3c(c2)nc2n3CCOC2)cc1 0%
CCN(CC)c1ccc(C(=O)NCc2ccc3c(c2)CCN3C(=O)c2ccc(F)cc2)cc1 -7.02%
COc1ccc(C(C)=O)cc1CSc1nc(NCCc2ccccc2)c2ccccc2n1 -1.92%
COc1ccc(C(=O)NNc2ncnc3c2cnn3-c2cccc(Cl)c2)cc1OC -9.79%
Cc1ccc(NC(=O)C2CCN(S(=O)(=O)c3c(C)noc3/C=C/c3cccs3)CC2)cc1F 1.64%
CCCS(=O)(=O)c1c(S(=O)(=O)CCC)c2cc(CC)ccn2c1C(=O)c1ccc(Cl)cc1 -15%
Cc1cccc(N(CC(=O)NCCSCc2cccc(Cl)c2)S(=O)(=O)c2ccccc2)c1C -8.16%
COc1ccc(C2NC(=O)N(C)C3=C2C(=O)N(c2cccc(C(=O)O)c2)C3)cc1 (configuration not stated) 9.89%
COc1ccc(Cl)cc1CNCCSc1nnnn1-c1ccccc1 -23.1%
COc1ccc(CNC(=O)CN2C(=O)CCn3nc(-c4ccccc4)cc32)c(OC)c1 4.98%
COc1ccc(S(=O)(=O)Nc2cc3c(C(=O)OC(C)C)c(C)oc3c3ccccc23)cc1 -14%
CC(CCc1ccccc1)NC(=O)CSc1n[nH]c(-c2ccc(F)cc2)n1 (configuration not stated) -0.45%
COc1ccc(N2C(=O)Cc3cc(OC)c(OC)cc3C2c2ccc(F)cc2)cc1 (configuration not stated) -16.1%
Cc1cccc(Cn2cc(C(=O)Nc3cc(F)ccc3F)ccc2=O)c1 -8.4%
Cc1oc2ncn(C)c(=O)c2c1C(=O)NCc1ccc(Cl)cc1 -5.41%
COc1ccc(-c2nc(Cn3c(SCc4cccc(C(F)(F)F)c4)nc4cccnc43)c(C)o2)cc1OC 1.46%
CC1=C(C(=O)Nc2ccc(C)cc2C)C(c2ccc(O)cc2)n2nc(SCC(=O)c3ccc(C)cc3)nc2N1 (configuration not stated) 2.01%
Cn1c(Nc2ccc(Cl)cc2)cc(=O)n(C)c1=O 5.12%
COc1ccc(-c2nn3c(=O)cc(CN4CCN(S(=O)(=O)c5ccc(C)cc5)CC4)nc3s2)cc1 -0.777%
COc1ccc(OC)c(CNC(=O)C2CCCCN2S(=O)(=O)c2ccc(F)cc2)c1 (configuration not stated) -9.35%
COc1ccc(C(=O)Nc2ccc(S(=O)(=O)N(Cc3ccccc3)c3ccccc3)cc2)cc1 -5.64%
Cc1cc(OCC(O)CN2CCN(c3cccc(Cl)c3)CC2)ccc1Cl (configuration not stated) -0.545%
CC(C)Cc1nn2c(=O)cc(COC(=O)c3ccccc3NC(=O)C3CCCCC3)nc2s1 0%
CCCc1nn2c(=O)cc(COC(=O)c3ccc(NC(=O)C4CCCCC4)cc3)nc2s1 8.5%
CCc1nnc2c(Nc3ccc(N(CC)CC)cc3C)nc3ccccc3n12 -2.47%
Cc1ccc(S(=O)(=O)NCc2nc3cccnc3n2Cc2ccccc2Cl)c(C)c1 0.739%
Cc1cc(S(=O)(=O)Nc2ccc(C(=O)O)cc2)c(C)c(S(=O)(=O)c2ccc(Cl)cc2)c1 -1.54%
COc1ccc(C)cc1NC(=O)c1cn(C)c(=O)c2cc(OC)c(OC)cc12 7.89%
COc1cccc(NS(=O)(=O)c2ccc3c(c2)N(C)C(=O)CC(=O)N3C)c1 -1.2%
CCc1ccccc1NC(=O)N1CC(C)Sc2ccccc21 (configuration not stated) -1.1%
COc1ccccc1NC(=O)CN1C(=O)c2ccccc2Sc2ccc(C(=O)N3CCCC3)cc21 2.57%
CC(=O)c1ccccc1OCC(O)Cn1c(CO)nc2ccccc21 (configuration not stated) 4.92%
CC(=O)c1ccc(NC(=O)c2nc(-c3ccccc3)n(-c3ccccc3)n2)cc1 3%
O=C(Nc1ccc(Br)cc1F)N1CC=C(c2c[nH]c3ccccc23)CC1 -0.0664%
COc1cccc(N2CCN(C(=O)CCCCCn3c(=O)[nH]c4ccccc4c3=O)CC2)c1 1.58%
CCc1ccc(CNC(=O)c2cc3c(=O)n(Cc4cccs4)ccc3nc2C)cc1 -4.56%
CCC(C(=O)NC1CCC(C)CC1)n1nc(C)c2sc3ccccc3c2c1=O (configuration not stated) 0.126%
CC(C)c1ccc(NC(=O)CSc2nc3ccccc3nc2Cc2ccccc2)cc1 11.7%
COc1ccccc1CNC(=O)C1CCN(S(=O)(=O)c2ccc3c(c2)CCCN3C(C)=O)CC1 -1.6%
Cc1ccc(S(=O)(=O)N(C)Cc2nc(-c3ccccc3)oc2C)cc1 13.4%
CCOc1ccccc1NC(=O)Cn1nnc(C(=O)NCc2ccc(F)cc2)c1N -8.06%
CN(C)CCNC(=O)C(=O)NCC(c1cccnc1)N1CCN(c2ccc(F)cc2)CC1 (configuration not stated) -3.17%
CCc1nc2nc(C)c(NS(=O)(=O)c3ccc(C)cc3)c(=O)n2[nH]1 -17.5%
COc1ccc(-c2c(C)nn3c(C(F)(F)F)cc(-c4ccccc4)nc23)cc1 -4.33%
COc1ccc(OC)c(NC(=O)c2cc(C3CC3)nc3c2c(C)nn3-c2ccc(C)cc2)c1 2.47%
O=C(Cn1cc(SCc2ccccc2F)c2ccccc21)N1CCCCC1 -13.5%
Cc1cc(C)cc(NC(=O)Cc2c(C(=O)O)c(C)cn2C)c1 -1.4%
